Measurements from the supplement of paper PMC11417369.
± gives the standard deviation of the averaged measurements. Some of the results follow.

Tested on: PfAP2-EXP AP2 domain (GST-tagged)
Test: gcPBM binding intensity (ln(normalized median fluorescence intensity)); higher = stronger DNA binding
How it was run: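 The highest Masliner-normalised natural-log median intensity across replicate spots of either probe orientation is reported as binding intensity. GST-tagged P. falciparum DNA-binding domains expressed in E. coli were applied for 1 h to an Agilent 4 × 180k array of primer-extended double-stranded 36-bp intergenic genomic probes plus negative controls, and bound protein was detected with Alexa488 anti-GST antibody and scanned at 488 nm.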

Sequence | gcPBM binding intensity (ln)
ATTCATATATACTTCACACACATTTTATCATTCAAA [CACACA_site2468] | 8.93 ± 0.33
TTTTTTTACTTAATAGTTCAACATATATCTCAATGT [CACACA_negctrl_site620] | 8.49 ± 0.38
GAAAACGTCTTTAATAGTACACAGTTAAAAAATACA [XGTACX_site8976] | 8.48 ± 0.38
GAAATTATGTAAAAAAGTACTAACATACATATATAT [XGTACX_site1794] | 8.61 ± 0.32
TATATATATATATAAAGTACATATAATATATATTTG [XGTACX_site5412] | 9.97 ± 0.45
TTTTTTTTTTTGATGGTGCAATATATTAAATAGAAA | 8.86 ± 0.28
TTTTTTCATTATATATAGTATGCAAGTCAAATTAAT [GTGCAC_negctrl_site207] | 8.32 ± 0.44
CTATAAAAATATAATTGTACAAATTTTTATATCTTA [XGTACX_site7722] | 8.18 ± 0.35
ACAAAATTTACAAAATGTACAAAATTTACAAAATAT [XGTACX_site3542] | 8.47 ± 0.35
AAAAAAAAAAAAAACATACACACATTGAACTTTTAT [CACACA_site3251] | 8.4 ± 0.38
TATACCTATAGACACACACACATATAGATTTATATA [CACACA_site7124] | 8.45 ± 0.45
CGCATACACAGACACACACACACATATAAATATGTA [CACACA_site6444] | 8.54 ± 0.28
AATTTTTTATTAAACACACAAACATATATATATATA [CACACA_site1937] | 9.94 ± 0.35
GTTCATACTTAATATTGTACTTTTCATGTAGTGTAT [XGTACX_site6613] | 8.87 ± 0.51
TACAAATATATATGCACACACATATACATACATATA [CACACA_site2182] | 8.57 ± 0.23
TATTAGATATAATATATACACACCAACGAACGAAGA [CACACA_site1134] | 9.06 ± 0.56
TAACATATTTTTAATACACACTCAAAAAAGTACTTA [CACACA_site5638] | 8.31 ± 0.37
AAATAAATATTTATATGTACATATATTTTATAATAC [XGTACX_site7041] | 8.54 ± 0.28
TTCATTCAAATTAACGTGCACATTATTAGTAAAAAC | 9.13 ± 0.099
TTATATAATTTAATAGTGCAATTATATTAATTTTTC | 8.21 ± 0.16
TAGATATATAATTTGCGTACACAAATAATATATTTT [XGTACX_site6397] | 8.51 ± 0.19
TAGTTTTCTTAAAGATGTACATTTTAAAAATAATCT [XGTACX_site255] | 8.28 ± 0.36

Sequence | gcPBM binding intensity (ln)
ATATATATATGTTACTGTACTAATTTATATGTTAAT [XGTACX_site3341] | 9.665 ± 0.064
AATACAAATATATACACACATACATACATACATATA [CACACA_site3147] | 8.48 ± 0.35
TTATGGTTTAAATAAAGTACAAATAAATAAATATAT [XGTACX_site5777] | 8.62 ± 0.37
ATACACATATGTTAATGTACACATATATAATATTTA [XGTACX_site163] | 8.64 ± 0.33
CACAAAAATAGACACACACACATATAGATTTATTAT [CACACA_site7676] | 8.56 ± 0.48
TTTCTTAAATATATTGAGGAATAAAAAGAAGAAAAG [GTGCAC_negctrl_site281] | 8.69 ± 0.59
TTATGAAAAATAAAATTAGAAAAAAAGGAAAATGAA [XGTACX_negctrl_site232] | 8.81 ± 0.47
AGGTTACATAGATTTTGTACATATATATTATTTTTT [XGTACX_site3040] | 8.44 ± 0.38
AAAAAATTATAAAAGTGTACATATATATATATATAT [XGTACX_site154] | 10 ± 0.38
CATATTTCTTTATTGGCACACATTTTTTCAATTATA [CACACA_site1618] | 8.86 ± 0.32
TTGAAAATACAAAATTGTACAAAGATTTAAATAAAA [XGTACX_site1182] | 8.71 ± 0.45
TGAAATAAATAATGCACACTCTACAGATATACGTAT [CACACA_site5270] | 8.6 ± 0.34
AAAAAAAAAAAAAACACACACAAATTTAATCTATAT [CACACA_site6894] | 8.4 ± 0.42
TGTTATTACTTTATATCATCTTAAAATAAGCATATT [CACACA_negctrl_site1501] | 8.29 ± 0.42
TTTATTTATTACAATTTTTGAATCACCACACAGTCG [GTGCAC_negctrl_site413] | 8.31 ± 0.49
ATCATGTTATATACATGTACATATATATATATATAT [XGTACX_site1329] | 10.2 ± 0.3
TATTTATTTATGTGTTGTACAAATAAATAGAGGTAT [XGTACX_site6408] | 8.74 ± 0.47
ATATATTAAAAACGATGTACCCTGAACTAAAAAAAA [XGTACX_site4986] | 8.65 ± 0.3
TATATGAAAATGTTCATACACACATAAAAAAAAAAA [CACACA_site3237] | 8.46 ± 0.45
ATATATATATATATATGTACATATTTTAATAATTAA [XGTACX_site8549] | 10.2 ± 0.23
TGTTGTTACATATATACACACATATATATATTATAT [CACACA_site2397] | 8.6 ± 0.41
CGCGCACACGGACACACACACACACGGATATAAATA [CACACA_site7102] | 8.69 ± 0.37
